Laboratory results taken from the supplement of paper PMC11417369.
± gives the standard deviation of the averaged measurements. The list shows a part of the results.

test system: PfAP2-I AP2 domain 3 (GST-tagged); assay: gcPBM binding intensity (ln(normalized median fluorescence intensity)); higher = stronger DNA binding
Method in brief: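 Alexa488 anti-GST antibody, scanned at 488 nm, detected GST-tagged P. falciparum DNA-binding domains that had been expressed in E. coli and incubated for 1 h on an Agilent 4 × 180k array. The array carried primer-extended double-stranded 36-bp intergenic genomic probes and negative controls. Binding intensity is the highest Masliner-normalised natural-log median intensity across replicate spots of either orientation of each probe.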

Point of comparison: “GTAATTATACATATTACACACTCTCTTGATCTTTTT [CACACA_site7756]”, “gcPBM binding intensity (ln)” value 7.87 ± 0.69. Against it:
- CCTATCCATGCATATACACACATATCTATTTATATA [CACACA_site6886] — within error, 8.7 ± 0.59
- ATTTACCTATATATTTGTACTTACATAATGCTACCT [XGTACX_site2693] — within error, 8.24 ± 0.67
- TAAAGAGAGACATCAACACACATACGTATGTATAGA [CACACA_site4896] — within error, 7.76 ± 0.64
- TAAAAAAAAATATATAAACACACATATTTATATACA [CACACA_site8469] — within error, 7.22 ± 0.38
- ATTCTATATGAAAAATGTACAAATAAAAATTCTAAG [XGTACX_site8900] — within error, 7.57 ± 0.49
- CCAATGTTTTCTTGTGTACACATCATTAAAGAAAAA [CACACA_site5300] — within error, 8.46 ± 0.014
- CACGCATACAGACACACACACACACCGATATATATA [CACACA_site8113] — within error, 8.34 ± 0.76
- CATGAAAATATTATGTGTACTTAATGCACATTCAAA [XGTACX_site1952] — higher, 10.3 ± 0.3
- AGGAGGATAGTTCACAGTACCCAGGAAATCTGCGGA [XGTACX_site4928] — within error, 8.26 ± 0.96
- TATGCAATAAAATATACACACAATATACTTATATAT [CACACA_site7691] — the same, 7.87 ± 0.4
- TTTATTTTCCAAAGGGTGCACATAGTTAAAACGATA [GTGCAC_site9855] — higher, 11.1 ± 0.29
- AATAAATACACATACACACACGACGCTAGTATATGT [CACACA_site6627] — within error, 7.64 ± 0.39
- AGAATAAATATGTGGTGTTATAGTATTAATGTTAAT [TGCATGCA_negctrl_site62] — within error, 7.75 ± 0.58
- ATAAATATACCAATCGGTACACATTTATACAAACAA [XGTACX_site7484] — within error, 7.75 ± 0.48
- GCTATAAATATAATCACACATAAATATATAATATAT [CACACA_site5144] — within error, 7.67 ± 0.38
- TCCTTATTTCATATTTTTAAATAATACAAAAAAAAA [CACACA_negctrl_site773] — within error, 7.62 ± 0.31
- GAATATTAAATATTATCACACACATAATTATTTCCA [CACACA_site8730] — within error, 7.88 ± 0.45
- ATATATATTTATAATCGTACGTACCTAACAATACAA [XGTACX_site4510] — within error, 8.14 ± 0.61
- AAATAAAAAAAAGCCTGTACATGTTCATAAATTTTT [XGTACX_site7925] — within error, 7.59 ± 0.53
- CTTAAATTAATTTGGGTGCATATATTTGTACACATT [GTGCAC_site9948] — higher, 10.8 ± 0.53
- TTCTATTTATATGTGGGTACTAATTTTTTTTCTTTT [XGTACX_site7104] — within error, 7.73 ± 0.65
- TGAATAAAATATTATACACACATATGTATATAACAT [CACACA_site974] — within error, 7.64 ± 0.37
- TTAATTTTTTTTTAAACACACATTTTTTTATTTAAG [CACACA_site2738] — within error, 7.41 ± 0.7
- GTTATAAATAATAAATAAATAATCAAATGAAGAATG [CACACA_negctrl_site653] — within error, 7.81 ± 0.55
- TATTAATTTTTTTTTTTTTTTTTTTTTTTTTTTTTT [CACACA_negctrl_site1329] — higher, 10 ± 0.17
- AAAAAAAAATTAAAATGTACACATAAAAAAAAAAAA [XGTACX_site794] — within error, 8.06 ± 0.8
- AAAAATAAATAAATATGTACATATATACATATATAT [XGTACX_site5892] — within error, 7.74 ± 0.47
- TTTTATATGTTATATACACACATATAAATAAATATA [CACACA_site7418] — within error, 7.78 ± 0.33
- TAACATATGGGACACACATGCAACTGTTATATGTCC [TGCATGCA_site959] — within error, 7.6 ± 0.57
- AGAAAACATATGTTTTGTACTTAAGAAAAAAAAAAA [XGTACX_site4231] — within error, 7.98 ± 0.86
- AACAGGTCATAATTTACACACTATATATTTTATTAT [CACACA_site670] — within error, 7.8 ± 0.75
- TATATCATATAAAACCGTACATACATACTTAATTGT [XGTACX_site6822] — within error, 7.8 ± 0.29
- ATCTATATTCATAATACACACATTCTGTAGCATTAT [CACACA_site7058] — within error, 8.03 ± 0.52
- TGATTAATTTTTAAATGTACTTAAAAATATACTTAT [XGTACX_site2872] — within error, 7.66 ± 0.29
- ATATATAATATATATTGTACAGGTATGTCTATAAAT [XGTACX_site2243] — within error, 8.04 ± 0.55
- GAGAGGTATCAAAAATGTACACATATATATATGTAT [XGTACX_site5611] — within error, 7.79 ± 0.47
- TTTTTTCTTTATTATGGTACGTATAAAAAAATTATA [XGTACX_site3433] — within error, 7.82 ± 0.38
- TATAAAATTTTTAAAAGTACATATTTTACATAATAC [XGTACX_site2193] — within error, 7.99 ± 0.32
- ATTATTCCATATTATTGTACTTTAATTTTTTAAACC [XGTACX_site2960] — within error, 7.92 ± 0.43
- TTTTTATCAACAAATAATACCATAACTCATATTTAT [CACACA_negctrl_site740] — within error, 7.57 ± 0.56
- AAAAAAAAAACACGCGCACACACACCCACCCACCCA [CACACA_site8689] — within error, 8.7 ± 0.98
- ACTAATAAAGGTGTAATACACACTATAAAAAGGAAT [CACACA_site1124] — within error, 8.61 ± 0.67
- TTTATCTAAATATGTGTGCACTCGTTAATTTTTTTT — higher, 9.89 ± 0.2
- TATATAAACCCACCTACACACACAACGTAAATGCAT [CACACA_site8702] — within error, 8.41 ± 0.4
- ATTATTATATTCAAATGTACTTAATAAACATTTTAA [XGTACX_site3023] — within error, 7.79 ± 0.2
- TGTTGATTTATCCTGTGTACGGATATATATCTTTCA [XGTACX_site7826] — within error, 7.62 ± 0.54
- TAAAGAATATTATAAACACACACTTTATAAAGAATT [CACACA_site114] — within error, 7.79 ± 0.47
- TATATAAAGAAACACACACACACCTTATAATTATTA [CACACA_site4062] — within error, 7.89 ± 0.26
- GAAAATAACTAAAATTGTACAAAGAAACATATATTT [XGTACX_site6484] — within error, 7.97 ± 0.47
- AGAAAAAAATAATCATCACACACGGAGAATGTCCAA [CACACA_site2314] — within error, 7.47 ± 0.72
- TATTAAAGCACCCATGCACACACACTAAGGAAAAGA [CACACA_site7961] — higher, 11.6 ± 0.71
- TATATATATCTGTATACACACATACAAATATGTAAA [CACACA_site5950] — within error, 7.85 ± 0.47
- GATATTCATTATATATGTACATATATGTAATATATA [XGTACX_site2210] — within error, 7.71 ± 0.44
- TAATAATATATAAAAAGTACATAACAAGATATGAAA [XGTACX_site4921] — within error, 7.72 ± 0.6
- ATATATTTTTTTTTTTCACACATTAGGATTCATATA [CACACA_site5758] — within error, 7.75 ± 0.7
- AAATGGAAAAGGTGTACACAAAAAAAAGGGAAAAGC [CACACA_site5331] — within error, 8.96 ± 0.75
- TACATATAAATATATAAATATAAATAAATAAATAAA [XGTACX_negctrl_site180] — within error, 7.86 ± 0.79
- TTTTTTTTTTTTTTTGCACACACATTGAATTATTAT [CACACA_site198] — higher, 9.38 ± 0.45
- CTTTATATATAGTGTACACATTAAACAAATCTCAAT [CACACA_site5845] — within error, 8.37 ± 0.39
- TTACCAAAAACCTCAAGTACAAAAAATCCCTAATAT [XGTACX_site2313] — within error, 7.8 ± 0.59
- ATAGTATACAGACACACACACACACGGATATAAATA [CACACA_site6914] — within error, 7.97 ± 0.49
- ATATATATATATATATGTACTAAATATTCATCCTTA [XGTACX_site6039] — higher, 9.62 ± 0.71
- TATAAGAGAAGAAGAAAAAAAAGGTTTCTATAGAAA [XGTACX_negctrl_site421] — within error, 7.42 ± 0.69
- AAGAAGCATAAATGTACACACATATTTATATATTAA [CACACA_site1332] — within error, 7.78 ± 0.32
- CATATAGTAATATATACACACACTTGTCTTGTAAAA [CACACA_site8238] — within error, 7.66 ± 0.52
- ATATTTATAATTTTTTGTACACATTTTTTAAAGATA [XGTACX_site1784] — within error, 8 ± 0.35
- TTGGTACCTATAGATACACACATATATACATATATA [CACACA_site3402] — within error, 7.77 ± 0.34
- TAAGAGTAGTTATATACACACATGTATATTATAGTT [CACACA_site6815] — within error, 7.53 ± 0.75
- TATATATATATATTATGTACGTATCAGTTTGTATGT [XGTACX_site695] — higher, 9.2 ± 0.16
- TTATAAATTAGAGGTACACACAAAAAAAAAAAGAAA [CACACA_site6740] — within error, 7.95 ± 0.39
- CACGACATTAACAATACATGCAGAAAAACAAAAAAT [TGCATGCA_site689] — within error, 8.24 ± 0.86
- ATTTTTAATATTATTACACACACTAAAAAAAAAAAA [CACACA_site1067] — within error, 8.08 ± 0.51
- AATGGGTTAGCACATACACACCAATATATTATATAT [CACACA_site9011] — within error, 7.96 ± 0.42
- ATTTATGATATGTAAACATGCATAAAAATTTCAAAA [TGCATGCA_site858] — within error, 7.62 ± 0.64
- TATAAACTTAATTTGAGTACTTAATAATAATTTTGT [XGTACX_site3730] — within error, 7.38 ± 0.47
- TATATATGTATATATGGTACAGAATATTCTACATTA [XGTACX_site5077] — within error, 7.56 ± 0.54
- TACCACATCGGTAAATGTACTTATAAAAAAAAAAAA [XGTACX_site3364] — within error, 8.04 ± 0.61
- CATCCACATATATGTACACACATATATATATATATA [CACACA_site2964] — higher, 9.29 ± 0.45
- CAATCATTTTATTGTTGTACAGTAATTATGAATTCA [XGTACX_site7508] — within error, 7.62 ± 0.38
- TGTCATGATACATACACACACATACACATACACATA [CACACA_site2135] — within error, 8.05 ± 0.42
- AAACAACAAAAATGATATATATAAAATTTATAATAT [XGTACX_negctrl_site185] — within error, 7.49 ± 0.51
- TATTTAATTATATAAAATTAAATTTTTAATTCTTCC [CACACA_negctrl_site473] — within error, 7.28 ± 0.53
- TATGGATTACACAATTGTACAAGAAAAATGTAAATA [XGTACX_site4040] — within error, 7.93 ± 0.59
- ATGCATAAAAGAAATACACACATAAATATATAAATA [CACACA_site2163] — within error, 7.88 ± 0.47
- TCTATTATCCTTTGCACACAAAATAAATGAAAAAAT [CACACA_site3029] — higher, 8.86 ± 0.014
- ATATAAGTTTTTTCTCAAAAAGTATAACGAGCATGA [CACACA_negctrl_site1375] — within error, 7.8 ± 0.52
- CCCACGTATATTTTGTGTACATAAATAAATAAATAA [XGTACX_site4046] — within error, 8.79 ± 0.61
